Test results published in US20260265334A1, “STAPLED PEPTIDES” (THE FLOREY INSTITUTE OF NEUROSCIENCE AND MENTAL HEALTH, priority 2023, published 2026).
For some of these results: Part of at least one peptide drawing is inferred or uncertain, most often the ends. For some of these results: For at least one compound, name, drawing or mass did not settle the structure. Bridge positions count the residues as written; N and C are the ends. Square brackets hold non-standard residues; d marks the D form. Peptide text beside a SMILES is read from it. αMeF = C[C@](N)(Cc1ccccc1)C(=O)O; S5 = C=CCCC[C@](C)(N)C(=O)O

Legend:
RXFP3 [1] = molecular target: T1, RXFP3 (Homo sapiens, UniProt Q9NSD7); assay: Eu-H3B1-22R competition binding assay in CHO-K1-RXFP3 cells
T1 construct: expressed in transfected cells
T1 sequence (Q9NSD7 1-469): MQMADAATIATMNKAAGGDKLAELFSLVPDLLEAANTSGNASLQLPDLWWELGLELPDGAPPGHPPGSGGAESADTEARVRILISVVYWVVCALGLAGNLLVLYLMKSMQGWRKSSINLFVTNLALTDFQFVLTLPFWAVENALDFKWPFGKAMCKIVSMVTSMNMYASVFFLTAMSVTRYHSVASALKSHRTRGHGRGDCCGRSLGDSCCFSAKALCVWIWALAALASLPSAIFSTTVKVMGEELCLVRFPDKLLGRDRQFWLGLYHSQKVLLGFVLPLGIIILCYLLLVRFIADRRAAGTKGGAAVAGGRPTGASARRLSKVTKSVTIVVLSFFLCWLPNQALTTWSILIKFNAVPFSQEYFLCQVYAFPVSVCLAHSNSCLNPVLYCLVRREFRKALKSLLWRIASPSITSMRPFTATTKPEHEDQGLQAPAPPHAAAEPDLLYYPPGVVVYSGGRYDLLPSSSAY
Method: An Eu-H3B1-22R competition binding assay was conducted in CHO-K1-RXFP3 cells.
(§1) Competition binding curves for each peptide were performed in triplicate and each experiment was performed independently at least three times. Fluorescent measurements were carried out at excitation of 340 nm and emission of 614 nm on a BMG POLARstar plate reader (BMG Labtech, Melbourne, Australia). Pooled data were presented as mean±S.E.M. of specific binding and are fitted using a one-site binding curve in GraphPad Prism version 8 (GraphPad Inc., San Diego, USA). Statistical analyses were conducted using one-way analysis of variance with uncorrected Fisher's least significant difference (LSD) post-hoc analysis in GraphPad Prism version 9.
(§2) Competition binding and cAMP activity assay were conducted by a procedure analogous to that described above for Example 3. The results are shown in FIG. 24 (RXFP3) and FIG. 25 (RXFP4).

RXFP3 [2] = molecular target: T1, RXFP3; assay: Inhibition of forskolin-induced cAMP activity in CHO-K1-RXFP3 cells (pCRE β-galactosidase reporter); format: cell-based; conditions: 5 μM forskolin, 6 hours, Table 2
Method: Since RXFP3 is coupled to Gi/o proteins, peptides were tested for their ability to activate RXFP3 as measured via their ability to inhibit forskolin-induced cAMP activity in CHO-K1-RXFP3 or CHO-K1-RXFP4 cells transfected with a pCRE (cAMP Response Element) β-galactosidase reporter plasmid (as described in Belgi, A et al., Structure and function relationship of murine insulin-like peptide 5 (INSL5): free C-terminus is essential for RXFP4 receptor binding and activation. Biochemistry 2011, 50 (39), 8352-61; and Haugaard-Kedstrom, L. M et al., Synthesis and pharmacological characterization of a europium-labelled single-chain antagonist for binding studies of the relaxin-3 receptor RXFP3. Amino Acids 2015, 47 (6), 1267-71). For agonist assays, cells were stimulated with forskolin (5 μM for RXFP3, 1 μM for RXFP4)±increasing concentrations of each peptide for 6 hours. Data were expressed as the % forskolin activity, whereby 100% was defined as forskolin alone and 0% as maximum agonist stimulation (1 μM Analogue 2 for RXFP3 and 1 μM Analogue 13 for RXFP4). Data were analysed and plotted using GraphPad Prism 9 and are expressed as the mean±SEM of the pooled data. Statistical analysis was conducted using one-way ANOVA with Uncorrected Fisher's LSD post-hoc analysis using GraphPad Prism 9. […]

RXFP3 [3] = molecular target: T2, RXFP3 (Homo sapiens, UniProt Q9NSD7); assay: NanoBRET β-arrestin2 recruitment assay, RXFP3-NLuc / Venus-β-arrestin2 in HEK293T cells; format: cell-based
T2 construct: expressed in transfected cells; host or cells: HEK293T (transient, Lipofectamine 2000, pcDNA3.1/Zeo(+))
Method: (§3) The inventors assessed if H3B10-27(13/17αF) retained the ability to recruit β-arrestin2 and therefore display full agonist activity at RXFP3 and RXFP4, in comparison to Peptide 5.
The RXFP3 β-arrestin2 recruitment assay was carried out by PCR cloning NLuc onto the C-terminus of human RXFP3 in an identical manner to the RXFP3-rLuc8 construct to create pcDNA3.1-RXFP3-NLuc. The construct was sequenced on both strands to confirm that the NLuc was in frame with RXFP3 and there were no additional PCR mutations. pcDNA3.1-RXFP3-NL was tested in parallel with pcDNA3.1-RXFP3 in cAMP activity assays to determine if the C-terminal nanoluciferase fusion affected agonist activity.
For NanoBRET β-arrestin2 recruitment assays, HEK293T cells were plated onto a six-well plate, and were transfected the following day with β-arrestin2-Venus and either RXFP3-Nluc or RXFP4-Nluc, in the pcDNA3.1/Zeo(+) vector, using Lipofectamine 2000. The next day, cells were washed with DPBS and resuspended in complete media containing 25 mM HEPES but no phenol red, and were seeded into a 96-well CulturPlate (PerkinElmer). […] Emissions were detected simultaneously using a PHERAstar FSX plate reader (BMG Labtech) with 450/80 nm and 535/30 nm filters. Ligand-induced BRET ratio was calculated by subtracting the ratio of 535/30 nm emissions to 450/80 nm emissions for vehicle from the same ratio for ligand-treated wells. […]

RXFP4 [4] = molecular target: T3, RXFP4 (Homo sapiens, UniProt Q8TDU9); assay: Eu-R3/I5 competition binding assay in CHO-K1-RXFP4 cells; design: expressed in transfected cells; conditions: RXFP4, CHO-K1-RXFP4 cells, 5 nM Eu-R3/I5; Table 3
Method: An Eu-R3/15 competition binding assay in CHO-K1-RXFP4 cells was carried out.
as §1
(§4) An additional analogue of INSL5 was utilised as a control, INSL5-A13, having an A chain (SEQ ID NO: 9) and a B chain (SEQ ID NO: 10) with a first disulfide bond between Cys 1 of the A chain and Cys 7 of the B chain, and a second disulfide bond between Cys 14 of the A chain and Cys 19 of the B chain:
as §2

RXFP4 [5] = molecular target: T3, RXFP4; assay: Inhibition of forskolin-induced cAMP activity in CHO-K1-RXFP4 cells (pCRE β-galactosidase reporter); format: cell-based; design: expressed in transfected cells
Method: For agonist assays, cells were stimulated with forskolin (5 μM for RXFP3, 1 μM for RXFP4)±increasing concentrations of each peptide for 6 hours. Data were expressed as the % forskolin activity, whereby 100% was defined as forskolin alone and 0% as maximum agonist stimulation (1 μM Analogue 2 for RXFP3 and 1 μM Analogue 13 for RXFP4). Data were analysed and plotted using GraphPad Prism 9 and are expressed as the mean±SEM of the pooled data. Statistical analysis was conducted using one-way ANOVA with Uncorrected Fisher's LSD post-hoc analysis using GraphPad Prism 9.
as §4, §2

RXFP4 [6] = molecular target: T3, RXFP4; assay: NanoBRET β-arrestin2 recruitment assay, RXFP4-NLuc / Venus-β-arrestin2 in HEK293T cells; format: cell-based; design: expressed in transfected cells; host or cells: HEK293T (transient, Lipofectamine 2000, pcDNA3.1/Zeo(+))
Method: as §3
For NanoBRET β-arrestin2 recruitment assays, HEK293T cells were plated onto a six-well plate, and were transfected the following day with β-arrestin2-Venus and either RXFP3-Nluc or RXFP4-Nluc, in the pcDNA3.1/Zeo(+) vector, using Lipofectamine 2000. The next day, cells were washed with DPBS and resuspended in complete media containing 25 mM HEPES but no phenol red, and were seeded into a 96-well CulturPlate (PerkinElmer). The next day, prior to the assay, cells were pre-incubated in phenol red free media with NLuc substrate, 5 μM coelenterazine 400a for RXFP3-nLuc and 5 μM coelenterazine h for RXFP4-NLuc (both from Nanolight, Pinetop, AZ, USA) to establish a baseline, before addition of ligand or vehicle. Emissions were detected simultaneously using a PHERAstar FSX plate reader (BMG Labtech) with 450/80 nm and 535/30 nm filters. Ligand-induced BRET ratio was calculated by subtracting the ratio of 535/30 nm emissions to 450/80 nm emissions for vehicle from the same ratio for ligand-treated wells. […] Data are representative of 3-5 experiments performed in duplicate and concentration-response curves were fit to data by applying non-linear regression to area under the curve of time-course data, using GraphPad Prism 9.

RXFP4 [7] = molecular target: T3, RXFP4; assay: SmBiT-R3/I5 NanoBiT competition binding assay, HEK-LgBiT-RXFP4 membrane fractions; design: expressed in transfected cells; conditions: RXFP4, 2 nM SmBiT-R3/I5; Table 5
Method: Furthermore, a SmBiT-R3/15 competition binding assay was performed. All peptides were examined for their binding affinity to RXFP4 utilizing a competition NanoLuc® Binary Technology (NanoBiT™) binding assay. Briefly, HEK-LgBiT-RXFP4 crude membrane fractions (25 μg protein) were incubated with 2 nM SmBiT-R3/15 and increasing concentrations of competing peptides in binding buffer (0.5% BSA, 20 mM HEPES pH 7.5, 1.5 mM CaCl2), 50 mM NaCl) in a total of 100 μL in 96-well Optiplates (PerkinElmer, Waltham MA, USA). After 1 hour of shaking at room temperature, 1.25 μM final concentration of coelenterazine 400a was added, and luminescence measurements were recorded using a MicroBeta Microplate Counter (PerkinElmer, Waltham MA, USA). Each concentration-response curve was tested in triplicate, and each experiment was repeated at least three times with data being expressed as the mean±standard error of the mean (S.E.M) % specific.

RXFP3 [8] = molecular target: T1, RXFP3; assay: Antagonism of R3/I5 function (inhibition of forskolin-induced cAMP activity); format: cell-based; conditions: against 5 nM R3/I5
adult rats = assay: Effect of RXFP3 antagonist on agonist-induced chow consumption in rats; format: in vivo, rat
[9] = AUC of NanoBRET time course, Table 4

## CC[C@H](C)[C@@H]1NC(=O)[C@H](Cc2ccccc2)NC(=O)[C@@](C)(NC(=O)[C@H](CCCNC(=N)N)NC(=O)CNC(=O)[C@@H](N)CO)CCC/C=C\CCC[C@@](C)(C(=O)N[C@H](C(=O)N[C@H](C(=O)N[C@@H](Cc2ccccc2)C(=O)N[C@H](C(=O)N[C@@H](CO)C(=O)NCC(=O)NCC(=O)N[C@@H](CO)C(=O)N[C@@H](CCCNC(=N)N)C(=O)N[C@@H](Cc2c[nH]c3ccccc23)C(=O)O)[C@@H](C)O)[C@@H](C)CC)C(C)C)NC(=O)[C@H](CCCNC(=N)N)NC1=O [Peptide 5] (H-SGR[S5]FIR[S5]VIFTSGGSRW-OH; staple (Z) 4-8; N-terminus and C-terminus assumed)
RXFP3 [1]; RXFP3, CHO-K1-RXFP3 cells, 5 nM Eu-H3B1-22R, mean ± SEM (n), Table 2
  Eu-H3B1-22R pKi: 7.38 ± 0.03 (3)^
RXFP3 [2]
  cAMP pEC50: 8.48 ± 0.06 (5)
RXFP3 [3]; [9]
  RXFP3 pEC50 (β-arrestin2 recruitment): 7.05 ± 0.17 (n = 4)
RXFP3 [3]; AUC of the entire time course, text of b227
  pEC50, RXFP3 β-arrestin2 recruitment: 7.19±0.16
RXFP4 [4]
  Eu-R3/I5 pKi: 6.08 ± 0.17 (4)^
RXFP4 [5]; RXFP4, CHO-K1-RXFP4 cells, 1 μM forskolin, 6 hours, Table 3
  cAMP pEC50: 6.95 ± 0.10 (4)^
RXFP4 [6]; 10 μM
  response in RXFP4 β-arrestin2 recruitment at maximum concentration: only a minimal response
RXFP4 [6]; [9]
  RXFP4 pEC50 (β-arrestin2 recruitment): <5 (n = 3)

## CC[C@H](C)[C@H](NC(=O)[C@H](Cc1ccc(O)cc1)NC(=O)[C@@H](NC(=O)[C@@H](NC(=O)[C@@H]1CC(=O)NCCCC[C@H](NC(=O)[C@H](CC(C)C)NC(=O)CNC(=O)[C@@H](N)CO)C(=O)N[C@@H](Cc2ccc(O)cc2)C(=O)N[C@@H]([C@@H](C)CC)C(=O)N[C@@H](CCCNC(=N)N)C(=O)N1)C(C)C)[C@@H](C)CC)C(=O)N[C@@H](CO)C(=O)NCC(=O)N[C@@H](C)C(=O)N[C@@H](CO)C(=O)N[C@@H](CCCNC(=N)N)C(=O)N[C@@H](Cc1c[nH]c2ccccc12)C(=O)O [Lactam Bridge stapled analogue] (H-SGLKYIRDVIYISGASRW-OH; lactam 4-8; N-terminus assumed)
RXFP4 [5]; RXFP4, Table 5
  cAMP pEC50: 5.93 ± 0.05 (4)
RXFP4 [7]
  SmBiT R3/I5 pKi: 6.45 ± 0.17(3)

## CC[C@H](C)[C@H](NC(=O)[C@H](Cc1ccccc1)NC(=O)[C@](C)(Cc1ccccc1)NC(=O)[C@H](CCCNC(=N)N)NC(=O)CNC(=O)[C@@H](N)CO)C(=O)N[C@@H](CCCNC(=N)N)C(=O)N[C@@](C)(Cc1ccccc1)C(=O)N[C@H](C(=O)N[C@H](C(=O)N[C@@H](Cc1ccccc1)C(=O)N[C@H](C(=O)N[C@@H](CO)C(=O)N[C@@H](CCCNC(=N)N)C(=O)O)[C@@H](C)O)[C@@H](C)CC)C(C)C [H3B10-22R13/17αF] (H-SGR[αMeF]FIR[αMeF]VIFTSR-OH; N-terminus and C-terminus assumed)
RXFP3 [1]; CHO-K1-RXFP3 cells, Table 6
  RXFP3 Eu-H3B1-22R pKi (n): 7.60 ± 0.04 (3)
RXFP3 [8]
  RXFP3 Antagonist potency pIC50 (n): 6.98 ± 0.16 (4)
Adult rats; 2 nmol antagonist before 1 nmol agonist, n=14, p=0.048
  agonist-induced chow consumption: slightly induced a significant reduction
Adult rats; 4 nmol antagonist before 1 nmol agonist, n=14, p=0.10
  agonist-induced chow consumption: no significant reduction
Adult rats; 8 nmol antagonist before 1 nmol agonist, n=12
  agonist-induced chow consumption: significantly reduced agonist-induced chow intake
Adult rats; groups that received infusions of RXFP3 antagonist
  chow consumption vs aCSF group: No significant differences
